Measured values as given in PubChem BioAssay AID1745853 (National Center for Advancing Translational Sciences (NCATS), 2022).
Some of the results follow. These are further read-outs of the screen, such as a control signal, another cell line or another target. No call is given for them.

What was measured:
Experiment in all cases: Primary Screen for Target Class Profiling of Small Molecule Inhibitors of Methyltransferases
[1] = target: Glycine N-methyltransferase (Homo sapiens) (UniProt Q14749); conditions: purified enzyme, MTase-Glo SAH luminescence; measured here: GNMT inhibition; at 40 µM; stronger effect = lower value
Summary of the method: (§1)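 Each enzyme was reacted with SAM and its substrate, with compounds tested once at 40 uM; SAH formed was read by MTase-Glo luminescence.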

[2] = target: Guanidinoacetate N-methyltransferase (Homo sapiens) (UniProt Q14353); conditions: purified enzyme, MTase-Glo SAH luminescence; measured here: GAMT inhibition; at 40 µM; stronger effect = lower value
Summary of the method: as §1

[3] = target: Histamine N-methyltransferase (Homo sapiens) (UniProt P50135); conditions: purified enzyme, MTase-Glo SAH luminescence; measured here: HNMT inhibition; at 40 µM; stronger effect = lower value
Summary of the method: as §1

[4] = target: Nicotinamide N-methyltransferase (Homo sapiens) (UniProt P40261); conditions: purified enzyme, MTase-Glo SAH luminescence; measured here: NNMT inhibition; at 40 µM; stronger effect = lower value
Summary of the method: as §1

[5] = target: Phenylethanolamine N-methyltransferase (Homo sapiens) (UniProt P11086); conditions: purified enzyme, MTase-Glo SAH luminescence; measured here: PNMT inhibition; at 40 µM; stronger effect = lower value
Summary of the method: as §1
On the % scale 0 is the no-effect control and ±100 the full control effect.

## O=C(c1nnc(CN2CCN(c3ccccn3)CC2)n1-c1cccnc1)N1CCC[C@@H]1c1cccc(F)c1
[1]
  activity change, negative = inhibition: -3.25%
[2]
  activity change, negative = inhibition: -1.41%
[3]
  activity change, negative = inhibition: -2.54%
[4]
  activity change, negative = inhibition: -4.62%
[5]
  activity change, negative = inhibition: 0.494%

## O=C(NCCc1cccs1)C1CCN(c2cc(C(F)(F)F)ncn2)CC1
[1]
  activity change, negative = inhibition: -0.862%
[2]
  activity change, negative = inhibition: -1.92%
[3]
  activity change, negative = inhibition: 0.361%
[4]
  activity change, negative = inhibition: -6.61%
[5]
  activity change, negative = inhibition: -8.11%

## CN(C)CCOC(c1ccccc1)c1ccccc1
[1]
  activity change, negative = inhibition: -2.42%
[2]
  activity change, negative = inhibition: 7.7%
[3]
  activity change, negative = inhibition: -12.3%
[4]
  activity change, negative = inhibition: -3.59%
[5]
  activity change, negative = inhibition: 10.6%

## Cc1ccc(CNC(=O)Cn2c(=O)oc3cc(S(=O)(=O)N4CC(C)CC(C)C4)ccc32)cc1 (stereo not drawn)
[1]
  activity change, negative = inhibition: -3.62%
[2]
  activity change, negative = inhibition: 0%
[3]
  activity change, negative = inhibition: -3.48%
[4]
  activity change, negative = inhibition: -5.34%
[5]
  activity change, negative = inhibition: -8.24%

## CCC(C)C(=O)N1CCC2(CCc3nn(Cc4ccccc4)c(=O)n3CC2)CC1 (stereo not drawn)
[1]
  activity change, negative = inhibition: -3.75%
[2]
  activity change, negative = inhibition: 1.44%
[3]
  activity change, negative = inhibition: 1.56%
[4]
  activity change, negative = inhibition: -0.739%
[5]
  activity change, negative = inhibition: 3.52%

## OC(CN1CCC(Cc2ccc(F)cc2)CC1)c1ccc(Cl)cc1 (stereo not drawn)
[1]
  activity change, negative = inhibition: -3.45%
[2]
  activity change, negative = inhibition: 6.87%
[3]
  activity change, negative = inhibition: -0.561%
[4]
  activity change, negative = inhibition: -6.18%
[5]
  activity change, negative = inhibition: 2.31%

## COc1ccc(CCNC(=O)CN(C)S(=O)(=O)c2ccc3[nH]c4c(c3c2)CCCC4)cc1OC
[1]
  activity change, negative = inhibition: -20.6%
[2]
  activity change, negative = inhibition: 2.25%
[3]
  activity change, negative = inhibition: -4.67%
[4]
  activity change, negative = inhibition: -19.5%
[5]
  activity change, negative = inhibition: 0.689%

## CC(C)NC[C@@H](O)c1ccc(O)c(O)c1
[1]
  activity change, negative = inhibition: -35.5%
[2]
  activity change, negative = inhibition: 1.09%
[3]
  activity change, negative = inhibition: 0.482%
[4]
  activity change, negative = inhibition: -13.4%
[5]
  activity change, negative = inhibition: -18.3%

## O=C1CCCN1CCCNc1nc2c(S(=O)(=O)c3ccc(Br)cc3)nnn2c2ccccc12
[1]
  activity change, negative = inhibition: -4.45%
[2]
  activity change, negative = inhibition: 0.226%
[3]
  activity change, negative = inhibition: -1.12%
[4]
  activity change, negative = inhibition: 1.34%
[5]
  activity change, negative = inhibition: -2.88%

## C[C@@H]1O[C@@H](O[C@H]2[C@@H]3C=CO[C@@H](O[C@@H]4O[C@H](CO)[C@@H](O)[C@H](O)[C@H]4O)[C@@H]3[C@@]3(CO)O[C@@H]23)[C@H](OC(=O)/C=C/c2ccc(O)c(O)c2)[C@H](O)[C@H]1O
[1]
  activity change, negative = inhibition: 0.68%
[2]
  activity change, negative = inhibition: -7.24%
[3]
  activity change, negative = inhibition: -0.704%
[4]
  activity change, negative = inhibition: -17.8%
[5]
  activity change, negative = inhibition: 0.693%

## Cc1nn(CCC#N)c(C)c1[C@@H]1C=C[C@@H](NCc2ccc(C(C)C)cc2)C1
[1]
  activity change, negative = inhibition: -4.63%
[2]
  activity change, negative = inhibition: -3.94%
[3]
  activity change, negative = inhibition: -17.5%
[4]
  activity change, negative = inhibition: -14.9%
[5]
  activity change, negative = inhibition: -9.35%

## CC(=O)Nc1c2n(c3ccc(F)cc13)CC(C)(C(=O)NC1CCCC1)N(Cc1cccnc1)C2=O (stereo not drawn)
[1]
  activity change, negative = inhibition: 4%
[2]
  activity change, negative = inhibition: 0%
[3]
  activity change, negative = inhibition: 6.25%
[4]
  activity change, negative = inhibition: 1.85%
[5]
  activity change, negative = inhibition: 0.65%

## CC(C)CNC(=O)c1ccc2c(=O)n(Cc3ccccc3)c3nn(Cc4ccccc4)c(=O)n3c2c1
[1]
  activity change, negative = inhibition: 0.869%
[2]
  activity change, negative = inhibition: 0%
[3]
  activity change, negative = inhibition: 3.07%
[4]
  activity change, negative = inhibition: 2.08%
[5]
  activity change, negative = inhibition: 3.21%

## CN(C(=O)Cc1c[nH]c2ccccc12)C1CCc2nn(C)c(=O)n2CC1 (stereo not drawn)
[1]
  activity change, negative = inhibition: -0.437%
[2]
  activity change, negative = inhibition: 0.458%
[3]
  activity change, negative = inhibition: 1.56%
[4]
  activity change, negative = inhibition: -0.404%
[5]
  activity change, negative = inhibition: 2.32%

## C=CCn1c(=O)c2ccc(C(=O)NC(C)C)cc2n2c(=O)n(CC(=O)Nc3ccccc3CC)nc12
[1]
  activity change, negative = inhibition: 4.64%
[2]
  activity change, negative = inhibition: 5.03%
[3]
  activity change, negative = inhibition: 7.31%
[4]
  activity change, negative = inhibition: -2.09%
[5]
  activity change, negative = inhibition: -0.183%

## COc1ccc(Nc2cnc3ccc(-c4ccccc4)nn23)cc1
[1]
  activity change, negative = inhibition: -10.9%
[2]
  activity change, negative = inhibition: -2.71%
[3]
  activity change, negative = inhibition: -2.98%
[4]
  activity change, negative = inhibition: -4.61%
[5]
  activity change, negative = inhibition: -3.58%

## COc1ccc(CNC(=O)c2ccc3c(=O)nc4c(-c5cccc(F)c5)n[nH]n4c3c2)cc1
[1]
  activity change, negative = inhibition: 0.965%
[2]
  activity change, negative = inhibition: 0%
[3]
  activity change, negative = inhibition: 2.32%
[4]
  activity change, negative = inhibition: 3.49%
[5]
  activity change, negative = inhibition: -3.57%

## COc1ccc(CNc2nc3c(-c4cccc(Br)c4)nnn3c3ccccc23)cc1
[1]
  activity change, negative = inhibition: -5.63%
[2]
  activity change, negative = inhibition: -4.77%
[3]
  activity change, negative = inhibition: -6.33%
[4]
  activity change, negative = inhibition: -19.2%
[5]
  activity change, negative = inhibition: -9.52%

## CN1C[C@@H](NC(=O)NC2CCCCC2)C[C@H]1c1nc(Cc2ccccc2)no1
[1]
  activity change, negative = inhibition: 0.53%
[2]
  activity change, negative = inhibition: 0.703%
[3]
  activity change, negative = inhibition: 2.56%
[4]
  activity change, negative = inhibition: -0.196%
[5]
  activity change, negative = inhibition: -0.557%

## CC(=O)O[C@@H]1C[C@H](O)[C@@]23CO[C@H](O)[C@]1(C)C2C[C@@H](O)[C@]1(C)C3C(=O)[C@H](OC(C)=O)[C@@]2(C)[C@H](c3ccoc3)C[C@H]3O[C@]321 (stereo partly drawn)
[1]
  activity change, negative = inhibition: 4.7%
[2]
  activity change, negative = inhibition: 6.49%
[3]
  activity change, negative = inhibition: 9.97%
[4]
  activity change, negative = inhibition: -6.95%
[5]
  activity change, negative = inhibition: 3.99%

## CCn1c(=O)n(CC)c2cc(S(=O)(=O)Nc3ccc(Cl)cc3)ccc21
[1]
  activity change, negative = inhibition: -3.03%
[2]
  activity change, negative = inhibition: 4.98%
[3]
  activity change, negative = inhibition: -3.51%
[4]
  activity change, negative = inhibition: -13.4%
[5]
  activity change, negative = inhibition: -0.876%

## CCOC(=O)c1cc2n(n1)CC(C)(C(=O)NC1CCCC1)N(c1ccccc1CC)C2=O (stereo not drawn)
[1]
  activity change, negative = inhibition: 0.481%
[2]
  activity change, negative = inhibition: 0%
[3]
  activity change, negative = inhibition: -0.305%
[4]
  activity change, negative = inhibition: -1.97%
[5]
  activity change, negative = inhibition: 1.37%

## CC1(C(=O)NCc2ccccc2)Cn2c(cc3ccccc32)C(=O)N1CCc1cccs1 (stereo not drawn)
[1]
  activity change, negative = inhibition: 1.9%
[2]
  activity change, negative = inhibition: 3.81%
[3]
  activity change, negative = inhibition: 5.03%
[4]
  activity change, negative = inhibition: 1.46%
[5]
  activity change, negative = inhibition: 0.67%

## NC(=O)CO[C@@H]1CO[C@H]2[C@@H]1OC[C@@H]2NC(=O)NCc1ccccc1
[1]
  activity change, negative = inhibition: -4.24%
[2]
  activity change, negative = inhibition: -7.59%
[3]
  activity change, negative = inhibition: -2.12%
[4]
  activity change, negative = inhibition: -11.5%
[5]
  activity change, negative = inhibition: -7.41%

## COc1ccc(NC(=O)[C@@H]2C[C@H](c3ccc(F)cc3)N(Cc3csc(C)n3)C2)cn1
[1]
  activity change, negative = inhibition: -14.8%
[2]
  activity change, negative = inhibition: -11%
[3]
  activity change, negative = inhibition: -6.41%
[4]
  activity change, negative = inhibition: -25.4%
[5]
  activity change, negative = inhibition: -16.5%

## CCCS(=O)(=O)c1nc(NC2CC2)cc(-c2ccc3c(ccn3C3CC(C)(C)NC(C)(C)C3)c2)n1
[2]
  activity change, negative = inhibition: 5.68%
[4]
  activity change, negative = inhibition: -29.2%
[5]
  activity change, negative = inhibition: -12.6%

## Cc1ccc(CN2CC(=O)N(Cc3ccc(Cl)cc3)c3ccccc3S2(=O)=O)cc1
[1]
  activity change, negative = inhibition: -1.02%
[2]
  activity change, negative = inhibition: 3.57%
[3]
  activity change, negative = inhibition: -8.12%
[4]
  activity change, negative = inhibition: -6.63%
[5]
  activity change, negative = inhibition: -6.89%

## COc1ccccc1CNC(=O)C1(C)Cn2nc(-c3ccccc3)cc2C(=O)N1Cc1ccccc1C (stereo not drawn)
[1]
  activity change, negative = inhibition: 5.28%
[2]
  activity change, negative = inhibition: 0.886%
[3]
  activity change, negative = inhibition: 4.38%
[4]
  activity change, negative = inhibition: 3.24%
[5]
  activity change, negative = inhibition: 0.929%

## CCC(C(=O)NCCc1ccc(Cl)cc1)n1ccc2cc(S(=O)(=O)N3CCCCC3)ccc21 (stereo not drawn)
[1]
  activity change, negative = inhibition: 2.65%
[2]
  activity change, negative = inhibition: 0%
[3]
  activity change, negative = inhibition: 3.76%
[4]
  activity change, negative = inhibition: 0.091%
[5]
  activity change, negative = inhibition: 0.075%
